Data from patent US5434133A, “CNP analog peptides and their use” (Suntory Limited, priority 1991, dated 1995).
Not every detail of the peptide structures is certain; ends, links or a residue may be inferred. *1 amine or outer side, *2 acyl side, *3 side chain or, on linkers, in order; H or OH if unused. Where a SMILES comes first, the peptide text is derived from it. Bridges are numbered along the chain shown (N, C = ends). [ ]: non-standard residue; d: D form. Phe(4-NO2) = N[C@@H](Cc1ccc([N+](=O)[O-])cc1)C(=O)O; Phe(4-Cl) = N[C@@H](Cc1ccc(Cl)cc1)C(=O)O; Phe(4-F) = N[C@@H](Cc1ccc(F)cc1)C(=O)O; X1 = O=C(CC1(S[*:2])CCCCC1)[*:1]; Aib = CC(C)(N)C(=O)O

Tested on: cultured vascular smooth muscle cells (VSMC) derived from the aortas of rats
Assay: cGMP producing activity in cultured VSMC (cGMP radioimmunoassay)
Assay type: cell-based, rat
Conditions: for cGMP producing activity (in words) / cGMP producing activity relative to α-hANP: rat VSMC; for cGMP producing activity (in words): comparison with CNP-22 or α-hANP; for cGMP producing activity relative to α-hANP: times as high activity as α-hANP; for cGMP producing activity (% increase for 1 μm): specific activity compared to 1 μm α-hANP (2000 fmol/400000 cells) = 100, peptide at 1 μm
Experimental: 1-1: Measurement of CGMP Producing Activity
The above-mentioned activity of compounds synthesized according to the present invention was measured by the methods of Hirata et al. (Biochem. Biophys. Res. Commun., 128, 538, 1985) and Scarborough et al. (J. Biol. Chem., 261, 12960, 1986). The cells used were cultured vascular smooth muscle cells (hereunder abbreviated as VSMC) derived from the aortas of rats. From 10^-9 to 10^-6 M of α-hANP or a 20 peptide of interest was incubated together with VSMC and the amount cGMP produced was measured by cGMP radioimmunoassay. Percent maximum reactivity for each peptide, with the value of maximum reactivity for α-hANP being taken as 100%, was used as an indicator of activity.

Structure (SMILES) | cGMP producing activity (in words) | cGMP producing activity relative to α-hANP | cGMP producing activity (% increase for 1 μm) [%]
CC[C@H](C)[C@@H]1NC(=O)[C@H](CCCNC(=N)N)NC(=O)[C@H](CC(=O)O)NC(=O)[C@H](CC(C)C)NC(=O)[C@H](CCCCN)NC(=O)[C@H](CC(C)C)NC(=O)CNC(=O)[C@H](Cc2ccc(F)cc2)NC(=O)[C@@H](N)CSSC[C@@H](C(=O)N[C@@H](CC(N)=O)C(=O)N[C@@H](CO)C(=O)N[C@@H](Cc2ccccc2)C(=O)N[C@@H](CCCNC(=N)N)C(=O)N[C@@H](Cc2ccc(O)cc2)C(=O)O)NC(=O)CNC(=O)[C@H](CC(C)C)NC(=O)CNC(=O)[C@H](CO)NC(=O)[C@H](CCC(N)=O)NC(=O)[C@H](C)NC(=O)CNC1=O [Compound 25] (H-C[Phe(4-F)]GLKLDRIGAQSGLGCNSFRY-OH; disulfide 1-17) | particularly high activity, even stronger than CNP-22 | 4-6 times | 785
CC[C@H](C)[C@@H]1NC(=O)[C@H](CCCNC(=N)N)NC(=O)[C@H](CC(=O)O)NC(=O)[C@H](CCSC)NC(=O)[C@H](CCCCN)NC(=O)[C@H](CC(C)C)NC(=O)CNC(=O)[C@H](Cc2ccccc2)NC(=O)[C@@H](NC(=O)CNC(=O)[C@H](CCCCN)NC(=O)[C@H](CO)NC(=O)[C@H](CC(C)C)NC(=O)CN)CSSC[C@@H](C(=O)O)NC(=O)CNC(=O)[C@H](CC(C)C)NC(=O)CNC(=O)[C@H](CO)NC(=O)[C@H](CCSC)NC(=O)[C@H](CO)NC(=O)CNC1=O [Compound 8] (H-GLSKGCFGLKMDRIGSMSGLGC-OH; disulfide 6-22) | lower activity than CNP-22 (but higher than that of α-hANP) | – | 497
CC[C@H](C)[C@@H]1NC(=O)[C@H](CCCNC(=N)N)NC(=O)[C@H](CC(=O)O)NC(=O)[C@H](CC(C)C)NC(=O)[C@H](CCCCN)NC(=O)[C@H](CC(C)C)NC(=O)CNC(=O)[C@H](Cc2ccc(Cl)cc2)NC(=O)[C@@H](N)CSSC[C@@H](C(=O)N[C@@H](CC(N)=O)C(=O)N[C@@H](CO)C(=O)N[C@@H](Cc2ccccc2)C(=O)N[C@@H](CCCNC(=N)N)C(=O)N[C@@H](Cc2ccc(O)cc2)C(=O)O)NC(=O)CNC(=O)[C@H](CC(C)C)NC(=O)CNC(=O)[C@H](CO)NC(=O)[C@H](CCC(N)=O)NC(=O)[C@H](C)NC(=O)CNC1=O [Compound 24] (H-C[Phe(4-Cl)]GLKLDRIGAQSGLGCNSFRY-OH; disulfide 1-17) | particularly high activity, even stronger than CNP-22 | 4-6 times | 719
CC[C@H](C)[C@@H]1NC(=O)[C@H](CCCNC(=N)N)NC(=O)[C@H](CC(=O)O)NC(=O)[C@H](CC(C)C)NC(=O)[C@H](CCCCN)NC(=O)C(C)(C)NC(=O)CNC(=O)[C@H](Cc2ccccc2)NC(=O)[C@@H](NC(=O)CNC(=O)[C@H](CCCCN)NC(=O)[C@H](CO)NC(=O)[C@H](CC(C)C)NC(=O)CN)CSSC[C@@H](C(=O)O)NC(=O)CNC(=O)[C@H](CC(C)C)NC(=O)CNC(=O)[C@H](CO)NC(=O)[C@H](CCSC)NC(=O)[C@H](CO)NC(=O)CNC1=O [Compound 22, GLSKGCFGAibKLDRIGSMSG LGC] (H-GLSKGCFG[Aib]KLDRIGSMSGLGC-OH; disulfide 6-22) | – | – | 160
CC[C@H](C)[C@@H]1NC(=O)CNC(=O)[C@H](Cc2ccccc2)NC(=O)[C@@H](NC(=O)CNC(=O)[C@H](CCCCN)NC(=O)[C@H](CO)NC(=O)[C@H](CC(C)C)NC(=O)CN)CSSC[C@@H](C(=O)O)NC(=O)CNC(=O)[C@H](CC(C)C)NC(=O)CNC(=O)[C@H](CO)NC(=O)[C@H](CCSC)NC(=O)[C@H](CO)NC(=O)CNC(=O)[C@H]([C@@H](C)CC)NC(=O)[C@H](CCCNC(=N)N)NC(=O)[C@H](CC(=O)O)NC(=O)[C@H](CC(C)C)NC(=O)[C@H](CCCCN)NC1=O [Compound 20] (H-GLSKGCFGIKLDRIGSMSGLGC-OH; disulfide 6-22) | substantially the same level of activity as CNP-22 | – | 499
CC[C@H](C)[C@@H]1NC(=O)[C@H](CCCNC(=N)N)NC(=O)[C@H](CC(=O)O)NC(=O)[C@H](CC(C)C)NC(=O)[C@H](CCCCN)NC(=O)[C@H](CC(C)C)NC(=O)CNC(=O)[C@H](Cc2ccc([N+](=O)[O-])cc2)NC(=O)[C@@H](N)CSSC[C@@H](C(=O)N[C@@H](CC(N)=O)C(=O)N[C@@H](CO)C(=O)N[C@@H](Cc2ccccc2)C(=O)N[C@@H](CCCNC(=N)N)C(=O)N[C@@H](Cc2ccc(O)cc2)C(=O)O)NC(=O)CNC(=O)[C@H](CC(C)C)NC(=O)CNC(=O)[C@H](CO)NC(=O)[C@H](CCC(N)=O)NC(=O)[C@H](C)NC(=O)CNC1=O [Compound 26] (H-C[Phe(4-NO2)]GLKLDRIGAQSGLGCNSFRY-OH; disulfide 1-17) | – | – | 255
CC[C@H](C)[C@@H]1NC(=O)[C@H](CCCNC(=N)N)NC(=O)[C@H](CC(=O)O)NC(=O)[C@H](CC(C)C)NC(=O)[C@H](CCCCN)NC(=O)[C@H](CC(C)C)NC(=O)CNC(=O)[C@H](Cc2ccc(Cl)cc2)NC(=O)CC2(CCCCC2)SSC[C@@H](C(=O)O)NC(=O)CNC(=O)[C@H](CC(C)C)NC(=O)CNC(=O)[C@H](CO)NC(=O)[C@H](CCSC)NC(=O)[C@H](CO)NC(=O)CNC1=O [Compound 18, PmPpC1FGLKLDR IGSMSGL] ([Phe(4-Cl)]GLKLDRIGSMSGLGC-OH; linker N-16 via X1) | – | – | 333
CC[C@H](C)[C@@H]1NC(=O)[C@H](CCCNC(=N)N)NC(=O)[C@H](CC(=O)O)NC(=O)[C@H](CC(C)C)NC(=O)[C@H](CCCCN)NC(=O)[C@H](CC(C)C)NC(=O)CNC(=O)[C@H](Cc2ccccc2)NC(=O)[C@@H](NC(=O)CNC(=O)[C@H](CCCCN)NC(=O)[C@H](CO)NC(=O)[C@H](CC(C)C)NC(=O)CN)CSSC[C@@H](C(=O)O)NC(=O)CNC(=O)[C@H](CC(C)C)NC(=O)CNC(=O)[C@H](CO)NC(=O)[C@H](CCSC)NC(=O)[C@H](C)NC(=O)CNC1=O [Compound 9] (H-GLSKGCFGLKLDRIGAMSGLGC-OH; disulfide 6-22) | strong activity comparable to that of CNP-22 | – | 707
CC[C@H](C)[C@@H]1NC(=O)[C@H](CCCNC(=N)N)NC(=O)[C@H](CC(=O)O)NC(=O)[C@H](CC(C)C)NC(=O)[C@H](CCCNC(=N)N)NC(=O)[C@H](CC(C)C)NC(=O)CNC(=O)[C@H](Cc2ccccc2)NC(=O)[C@@H](NC(=O)CNC(=O)[C@H](CCCCN)NC(=O)[C@H](CO)NC(=O)[C@H](CC(C)C)NC(=O)CN)CSSC[C@@H](C(=O)O)NC(=O)CNC(=O)[C@H](CC(C)C)NC(=O)CNC(=O)[C@H](CO)NC(=O)[C@H](CCSC)NC(=O)[C@H](CO)NC(=O)CNC1=O [Compound 7] (H-GLSKGCFGLRLDRIGSMSGLGC-OH; disulfide 6-22) | lower activity than CNP-22 (but higher than that of α-hANP) | – | 413
CC[C@H](C)[C@@H]1NC(=O)[C@H](CCCNC(=N)N)NC(=O)[C@H](CC(=O)O)NC(=O)[C@H](CC(C)C)NC(=O)[C@H](CCCCN)NC(=O)[C@H](CC(C)C)NC(=O)CNC(=O)[C@H](Cc2ccccc2)NC(=O)[C@@H](NC(=O)CNC(=O)[C@H](CCCCN)NC(=O)[C@H](CO)NC(=O)[C@H](CC(C)C)NC(=O)CN)CSSC[C@@H](C(=O)O)NC(=O)CNC(=O)[C@H](CC(C)C)NC(=O)CNC(=O)[C@H](CO)NC(=O)[C@H](CCC(N)=O)NC(=O)[C@H](CO)NC(=O)CNC1=O [Compound 10] (H-GLSKGCFGLKLDRIGSQSGLGC-OH; disulfide 6-22) | strong activity comparable to that of CNP-22 | – | 659
CC[C@H](C)[C@@H]1NC(=O)[C@H](CCCNC(=N)N)NC(=O)[C@H](CC(=O)O)NC(=O)[C@H](CC(C)C)NC(=O)[C@H](CCCCN)NC(=O)[C@H](CC(C)C)NC(=O)CNC(=O)[C@H](Cc2ccccc2)NC(=O)CC2(CCCCC2)SSC[C@@H](C(=O)O)NC(=O)CNC(=O)[C@H](CC(C)C)NC(=O)CNC(=O)[C@H](CO)NC(=O)[C@H](CCSC)NC(=O)[C@H](CO)NC(=O)CNC1=O [Compound 17, PmPFGLKLDRIGSMSGLGC] (FGLKLDRIGSMSGLGC-OH; linker N-16 via X1) | – | – | 233
CC[C@H](C)[C@@H]1NC(=O)[C@H](CCCNC(=N)N)NC(=O)[C@H](CC(=O)O)NC(=O)[C@H](CC(C)C)NC(=O)[C@H](CCCCN)NC(=O)[C@H](C(C)C)NC(=O)CNC(=O)[C@H](Cc2ccccc2)NC(=O)[C@@H](NC(=O)CNC(=O)[C@H](CCCCN)NC(=O)[C@H](CO)NC(=O)[C@H](CC(C)C)NC(=O)CN)CSSC[C@@H](C(=O)O)NC(=O)CNC(=O)[C@H](CC(C)C)NC(=O)CNC(=O)[C@H](CO)NC(=O)[C@H](CCSC)NC(=O)[C@H](CO)NC(=O)CNC1=O [Compound 21, GLSKGCFGVKLDRIGSM] | substantially the same level of activity as CNP-22 | – | 549
